Read counts are not given, so values of variants with three or more changes are uncertain.
B1: LINE1-full (parent)
chain: UACGUAGGUGGUUUUCCCCUGAUAGUGCUAAGGGGGCCUGGAAGUUUGGACUGGGCAGAGCUCAACACAGCGUGGCAAAGUGGCUGUGGCUAGACUGCCUCUCUGGAUUCCUCGUCACUCAGCAGGGCAUCUCUGAGAGAAAUGCC

Variants of: B1
Assay: self-cleavage, relative activity (ratio to wild type); higher = more cleavage; in vitro, sequencing; the parent is a self-cleaving ribozyme

Variant | self-cleavage
U52C A94U A140G | 0.21
A57G A65C A78G | 0.13
U52A C66U A124G | 0.06
G54A A65G U115C | 0.38
A57G A78G U130C | 0.71
C56U U62C A77G | 0.07
G58A A65G U85A | 0.05
G54A C63U A77G A79G U134A A142U | 0.15
U52C A79G A140U | 1.11
U52A A78G U91C | 0.47
A57G C113A C128U | 0.56
A57G U62C A124U | 0.07
G54A A65G U100C G126A | 0.16
A57U U62C U112C U132C | 0
A57U A129G A138G | 0.15
G53U U85C U112C U119C | 0.08
A57G A129G U132C | 1
A57U G74A U115G | 0.09
A57G A67U A69G A121U | 0
A57G U96A U108C A117G | 0
C56U G83A U91C U109A | 0.02
A57U C110U A138G | 0.15
U52C C110U C120U | 1.14
A57G A59G U81A | 0.07

Variant | self-cleavage
A57G C98U G114A | 0.04
A57G A64G U73A A140G | 0.29
U52A U62C A92G G106U | 0.01
G54A U119C U130C | 1.68
A57G A59G A117U | 0.15
C56A A65G U134A | 0.18
A57U A77U A121G C123U A142G | 0.09
U52A U96A C123U | 0.07
U52A A69G A94G | 0.18
U52C A64U U96A | 0.09
U52G C118U A142G | 1.04
A57U A59G U85G | 0.16
A57U U91C U108C G126U U134C | 0.15
A57G U81C U109C | 0.3
U52C U87C A140G | 0.11
A57U A69G G86A U87A | 0.06
U52C U62A A107U | 0.05
U52C G60A A141G | 0.06
U52C G54A U81G U104A | 0.23
G53A U85C U87C U112C G125U | 0.07
A57U A79G A94G U134C | 0
G54A A69U G127A U130A U143A | 0.05
A57U A69G A140G | 0.12
U52A U62A A79G A121G | 0.09

Variant | self-cleavage
A57U C71G A79G A124U A129G A138G | 0
G53A A78G U87C C113A A138G | 0.04
G53A C63A A140G | 0.05
G55A A59G A121G | 0
G53A A69G U91A G126A A142G | 0.25
A57U C61U U108C U112A | 0.03
A57U U85A A129G G137C U143C | 0.06
G54A A57G A77G A129G | 0.26
A57G A67U U143A | 0.19
A57G U104A U143G | 0.49
A57G C76U C98U U102C U130C | 0.04
G54A A77G U91A U109C A117C | 0.55
U52A A138G A141G | 2.04
U52C U119A A136U | 1.71
U52A U96C A129U | 0.18
U52A U119C A136U | 2.55
A57G U62A A78C | 0
U52C A69U A77G | 0.06
G54U U119A A124G | 0.32
A57U A94U A107G U108C A142G | 0
U52A A64G U73C G89U G97A | 0.02
G54A A57G A78G | 0.14
G53A U100A U115C | 0.98
U52C G80U U119A U130C | 0.34

Variant | self-cleavage
G55C G72A A94G | 0.03
A57U A78G U100C | 0.4
G53A U96C A121C | 0.04
U52C U81A U134C G135A | 2.3
A57G A78G A107G A121U | 0.22
U52A U62A U96A U108C | 0.03
A57U A65G G72A U109C | 0.03
G54A A59G A78G | 0.29
A57U A124U A142G | 0.05
A57U A67U A78U | 0.02
A57U A67G U143C | 0.09
G54A A92G U130C | 0.09
A57G A138G A142G | 2.92
U52C U112C A124U A141G | 1.31
G55U U96A A107G | 0.03
U52A U100A U132C | 1.67
A57G A64G U134A A138G | 0.33
U52C A64U A69U G75A A77G | 0.03
G53U A77G U81C U115A | 1.69
G54U A78G G144U | 0.72
A57G G88A U104A A124G | 0.07
A57G A77U A136G | 1.54
U52C A57U U109C | 0
A57G A69G A140U | 0.39

Variant | self-cleavage
U52C A79G U112C | 1.15
G54A U112A A141G | 0.89
A57G A69U U112C C128U A141G | 0.05
U52C A65G C71G | 0.08
G54A U73C A77U U115C U134C | 1
G58U U85C A121G A136G | 0.08
A57C U104C A138G A142G | 0
U52C U62A A64U A94G | 0
A57G U96C U102C | 1.53
G55A U81C U130C A138G A142G | 0.37
G54U A67G A78G | 0.3
U52C A59U A140G | 1.08
A57G U73A A94C A124U | 0.06
A57C U109C A136U U143C | 0
A57G U73A A79G C95A U130C U132C | 0
G53A U85A U134C A140G U143C | 0.01
A57G G75C A141G | 0.36
G54C C66U A77G U112C A138G A142G | 0.04
U52A A69G A78G A94G | 0
A57U C68U U96C C145G | 0.06
A57U A67G U119C U132C | 0
A57G U62C A78G | 0
A57G A65G U102C | 0
A57U A69G U115C | 0.3

Variant | self-cleavage
A57G A79G A136G | 0.66
G54A U96C C110U A142G | 0.04
A57G U115A U130C | 0.94
U52A U73C C120A A124C | 2.84
A57G U87C C90A | 0
G55A G122A G126A A140G A142G | 0
G53A C76U A129G | 2.36
U52C U96C C98A A140U | 0.06
C51U G60A U102A U119C | 0.03
U52A A78G U143A | 1.15
U52C A79G U85A U102C | 0
A57U A59G G86A U96C A136G | 0.04
U52A A121G G144A | 1.5
A57G U119C A129C | 2.59
U52A A138U A141G | 1.56
A57C U85C C110U | 0.11
U52A A94U A107G G126U | 0.41
A57G A64U U112A A121C | 0.15
U52C A59G U62A A64U | 0.04
U52C U87C U130C | 0
A57G U62C A65G G93A | 0.08
A57G A65G A121U | 0.13
U52A U81C G89C U100C | 0
G54A U62A U112C A136U | 0.02

Variant | self-cleavage
C56U A64G G139U | 0.06
U52C A92U U112C A129U | 0.58
A57U A64U U87C | 0.06
G55A G75A A142G | 0.12
C56U A77G A136G | 0.35
U52C A78G U87C | 0
A57U U73C A79U U130A | 0.24
G54A U104C A136G | 1.4
G54A U73C A78U A117U A129U A136G | 1.51
U52G U104C U132C A140G A141G | 1.41
G54A G70A U87C | 0.02
A57G A78G G114A | 0.31
A57G A124G G137A | 0.93
U52A A78C A140G | 2.08
G54A C123U U130G | 0.34
A57G A138G U143G | 0.62
C56A U87A C113U G114A U132C | 0.03
U52C A64U C118U A142G | 0.42
U52G A65G U96C | 0
C51U U108C C131A | 1.84
A57G A94G U134G | 0
U52C A77G G122C | 1.92
A57G U115C A136U A141G | 1.84

Reference: the RNAGym collection of RNA variant scans (doi:10.7554/elife.90254)
